From the supplement of paper PMC12423691 come the findings set out here.

This is one part of the list. Binding of human transcription factors and regulators to the viral nucleoprotein by AlphaScreen, crude cell-free proteins, amounts not normalised, one pass. Fold of the Venus control; higher = more signal. No active / inactive call. Single-pass screen; sequences are the whole Swiss-Prot entries looked up by name.

Sequences and labels used below:
B1: TCF12, Q99081 (protein)
chain: MNPQQQRMAAIGTDKELSDLLDFSAMFSPPVNSGKTRPTTLGSSQFSGSGIDERGGTTSWGTSGQPSPSYDSSRGFTDSPHYSDHLNDSRLGAHEGLSPTPFMNSNLMGKTSERGSFSLYSRDTGLPGCQSSLLRQDLGLGSPAQLSSSGKPGTAYYSFSATSSRRRPLHDSAALDPLQAKKVRKVPPGLPSSVYAPSPNSDDFNRESPSYPSPKPPTSMFASTFFMQDGTHNSSDLWSSSNGMSQPGFGGILGTSTSHMSQSSSYGNLHSHDRLSYPPHSVSPTDINTSLPPMSSFHRGSTSSSPYVAASHTPPINGSDSILGTRGNAAGSSQTGDALGKALASIYSPDHTSSSFPSNPSTPVGSPSPLTGTSQWPRPGGQAPSSPSYENSLHSLQSRMEDRLDRLDDAIHVLRNHAVGPSTSLPAGHSDIHSLLGPSHNAPIGSLNSNYGGSSLVASSRSASMVGTHREDSVSLNGNHSVLSSTVTTSSTDLNHKTQENYRGGLQSQSGTVVTTEIKTENKEKDENLHEPPSSDDMKSDDESSQKDIKVSSRGRTSSTNEDEDLNPEQKIEREKERRMANNARERLRVRDINEAFKELGRMCQLHLKSEKPQTKLLILHQAVAVILSLEQQVRERNLNPKAACLKRREEEKVSAVSAEPPTTLPGTHPGLSETTNPMGHM
B2: ZBTB38, Q8NAP3 (protein)
chain: MTVMSLSRDLKDDFHSDTVLSILNEQRIRGILCDVTIIVEDTKFKAHSNVLAASSLYFKNIFWSHTICISSHVLELDDLKAEVFTEILNYIYSSTVVVKRQETVTDLAAAGKKLGISFLEDLTDRNFSNSPGPYVFCITEKGVVKEEKNEKRHEEPAITNGPRITNAFSIIETENSNNMFSPLDLRASFKKVSDSMRTASLCLERTDVCHEAEPVRTLAEHSYAVSSVAEAYRSQPVREHDGSSPGNTGKENCEALAAKPKTCRKPKTFSIPQDSDSATENIPPPPVSNLEVNQERSPQPAAVLTRSKSPNNEGDVHFSREDENQSSDVPGPPAAEVPPLVYNCSCCSKAFDSSTLLSAHMQLHKPTQEPLVCKYCNKQFTTLNRLDRHEQICMRSSHMPIPGGNQRFLENYPTIGQNGGSFTGPEPLLSENRIGEFSSTGSTLPDTDHMVKFVNGQMLYSCVVCKRSYVTLSSLRRHANVHSWRRTYPCHYCNKVFALAEYRTRHEIWHTGERRYQCIFCLETFMTYYILKNHQKSFHAIDHRLSISKKTANGGLKPSVYPYKLYRLLPMKCKRAPYKSYRNSSYENARENSQMNESAPGTYVVQNPHSSELPTLNFQDTVNTLTNSPAIPLETSACQDIPTSANVQNAEGTKWGEEALKMDLDNNFYSTEVSVSSTENAVSSDLRAGDVPVLSLSNSSENAASVISYSGSAPSVIVHSSQFSSVIMHSNAIAAMTSSNHRAFSDPAVSQSLKDDSKPEPDKVGRFASRPKSIKEKKKTTSHTRGEIPEESNYVADPGGSLSKTTNIAEETSKIETYIAKPALPGTSTNSNVAPLCQITVKIGNEAIVKRHILGSKLFYKRGRRPKYQMQEEPLPQGNDPEPSGDSPLGLCQSECMEMSEVFDDASDQDSTDKPWRPYYNYKPKKKSRQLKKMRKVNWRKEHGNRSPSHKCKYPAELDCAVGKAPQDKPFEEEETKEMPKLQCELCDGDKAVGAGNQGRPHRHLTSRPYACELCAKQFQSPSTLKMHMRCHTGEKPYQCKTCGRCFSVQGNLQKHERIHLGLKEFVCQYCNKAFTLNETLKIHERIHTGEKRYHCQFCFQRFLYLSTKRNHEQRHIREHNGKGYACFQCPKICKTAAALGMHQKKHLFKSPSQQEKIGDVCHENSNPLENQHFIGSEDNDQKDNIQTGVENVVL
B3: PIAS4, Q8N2W9 (protein)
chain: MAAELVEAKNMVMSFRVSDLQMLLGFVGRSKSGLKHELVTRALQLVQFDCSPELFKKIKELYETRYAKKNSEPAPQPHRPLDPLTMHSTYDRAGAVPRTPLAGPNIDYPVLYGKYLNGLGRLPAKTLKPEVRLVKLPFFNMLDELLKPTELVPQNNEKLQESPCIFALTPRQVELIRNSRELQPGVKAVQVVLRICYSDTSCPQEDQYPPNIAVKVNHSYCSVPGYYPSNKPGVEPKRPCRPINLTHLMYLSSATNRITVTWGNYGKSYSVALYLVRQLTSSELLQRLKTIGVKHPELCKALVKEKLRLDPDSEIATTGVRVSLICPLVKMRLSVPCRAETCAHLQCFDAVFYLQMNEKKPTWMCPVCDKPAPYDQLIIDGLLSKILSECEDADEIEYLVDGSWCPIRAEKERSCSPQGAILVLGPSDANGLLPAPSVNGSGALGSTGGGGPVGSMENGKPGADVVDLTLDSSSSSEDEEEEEEEEEDEDEEGPRPKRRCPFQKGLVPAC
B4: ID1, P41134 (protein)
chain: MKVASGSTATAAAGPSCALKAGKTASGAGEVVRCLSEQSVAISRCAGGAGARLPALLDEQQVNVLLYDMNGCYSRLKELVPTLPQNRKVSKVEILQHVIDYIRDLQLELNSESEVGTPGGRGLPVRAPLSTLNGEISALTAEAACVPADDRILCR
B5: POU6F2, P78424 (protein)
chain: MSALLQDPMIAGQVSKPLLSVRSEMNAELRGEDKAATSDSELNEPLLAPVESNDSEDTPSKLFGARGNPALSDPGTPDQHQASQTHPPFPVGPQPLLTAQQLASAVAGVMPGGPPALNQPILIPFNMAGQLGGQQGLVLTLPTANLTNIQGLVAAAAAGGIMTLPLQNLQATSSLNSQLQQLQLQLQQQQQQQQQQPPPSTNQHPQPAPQAPSQSQQQPLQPTPPQQPPPASQQPPAPTSQLQQAPQPQQHQPHSHSQNQNQPSPTQQSSSPPQKPSQSPGHGLPSPLTPPNPLQLVNNPLASQAAAAAAAMSSIASSQAFGNALSSLQGVTGQLVTNAQGQIIGTIPLMPNPGPSSQAASGTQGLQVQPITPQLLTNAQGQIIATVIGNQILPVINTQGITLSPIKPGQQLHQPSQTSVGQAASQGNLLHLAHSQASMSQSPVRQASSSSSSSSSSSALSVGQLVSNPQTAAGEVDGVNLEEIREFAKAFKIRRLSLGLTQTQVGQALSATEGPAYSQSAICRHTILRSHFFLPQEAQENTIASSLTAKLNPGLLYPARFEKLDITPKSAQKIKPVLERWMAEAEARHRAGMQNLTEFIGSEPSKKRKRRTSFTPQALEILNAHFEKNTHPSGQEMTEIAEKLNYDREVVRVWFCNKRQALKNTIKRLKQHEPATAVPLEPLTDSLEENS
B6: NR0B2, Q15466 (protein)
chain: MSTSQPGACPCQGAASRPAILYALLSSSLKAVPRPRSRCLCRQHRPVQLCAPHRTCREALDVLAKTVAFLRNLPSFWQLPPQDQRRLLQGCWGPLFLLGLAQDAVTFEVAEAPVPSILKKILLEEPSSSGGSGQLPDRPQPSLAAVQWLQCCLESFWSLELSPKEYACLKGTILFNPDVPGLQAASHIGHLQQEAHWVLCEVLEPWCPAAQGRLTRVLLTASTLKSIPTSLLGDLFFRPIIGDVDIAGLLGDMLLLR
B7: CYTL1, Q9NRR1 (protein)
chain: MRTPGPLPVLLLLLAGAPAARPTPPTCYSRMRALSQEITRDFNLLQVSEPSEPCVRYLPRLYLDIHNYCVLDKLRDFVASPPCWKVAQVDSLKDKARKLYTIMNSFCRRDLVFLLDDCNALEYPIPVTTVLPDRQR
B8: MSC, O60682 (protein)
chain: MSTGSVSDPEEMELRGLQREYPVPASKRPPLRGVERSYASPSDNSSAEEEDPDGEEERCALGTAGSAEGCKRKRPRVAGGGGAGGSAGGGGKKPLPAKGSAAECKQSQRNAANARERARMRVLSKAFSRLKTSLPWVPPDTKLSKLDTLRLASSYIAHLRQLLQEDRYENGYVHPVNLTWPFVVSGRPDSDTKEVSAANRLCGTTA
B9: IKZF1, Q13422 (protein)
chain: MDADEGQDMSQVSGKESPPVSDTPDEGDEPMPIPEDLSTTSGGQQSSKSDRVVASNVKVETQSDEENGRACEMNGEECAEDLRMLDASGEKMNGSHRDQGSSALSGVGGIRLPNGKLKCDICGIICIGPNVLMVHKRSHTGERPFQCNQCGASFTQKGNLLRHIKLHSGEKPFKCHLCNYACRRRDALTGHLRTHSVGKPHKCGYCGRSYKQRSSLEEHKERCHNYLESMGLPGTLYPVIKEETNHSEMAEDLCKIGSERSLVLDRLASNVAKRKSSMPQKFLGDKGLSDTPYDSSASYEKENEMMKSHVMDQAINNAINYLGAESLRPLVQTPPGGSEVVPVISPMYQLHKPLAEGTPRSNHSAQDSAVENLLLLSKAKLVPSEREASPSNSCQDSTDTESNNEEQRSGLIYLTNHIAPHARNGLSLKEEHRAYDLLRAASENSQDALRVVSTSGEQMKVYKCEHCRVLFLDHVMYTIHMGCHGFRDPFECNMCGYHSQDRYEFSSHITRGEHRFHMS
B10: HMGB1, P09429 (protein)
chain: MGKGDPKKPRGKMSSYAFFVQTCREEHKKKHPDASVNFSEFSKKCSERWKTMSAKEKGKFEDMAKADKARYEREMKTYIPPKGETKKKFKDPNAPKRPPSAFFLFCSEYRPKIKGEHPGLSIGDVAKKLGEMWNNTAADDKQPYEKKAAKLKEKYEKDIAAYRAKGKPDAAKKGVVKAEKSKKKKEEEEDEEDEEDEEEEEDEEDEDEEEDDDDE
B11: BATF, Q16520 (protein)
chain: MPHSSDSSDSSFSRSPPPGKQDSSDDVRRVQRREKNRIAAQKSRQRQTQKADTLHLESEDLEKQNAALRKEIKQLTEELKYFTSVLNSHEPLCSVLAASTPSPPEVVYSAHAFHQPHVSSPRFQP

This assay concerns the target nucleoprotein N of Crimean-Congo hemorrhagic fever virus. As to the kind of experiment: AlphaScreen luminescence signal relative to Venus negative control (fold); higher = stronger binding to CCHFV N. The method, then: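 AlphaScreen binding of cell-free made, FLAG-GST-tagged human transcription factors and regulators (crude translation products) to biotinylated N protein; signal as fold of the FLAG-GST-Venus control. One pass.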
For orientation: Bead proximity is the source of the signal in Alpha formats.
B1 showed an AlphaScreen luminescence signal of 1.91.
With B2, the AlphaScreen luminescence signal worked out at 1.95.
B3: the AlphaScreen luminescence signal is 3.63.
In turn, B4 registered an AlphaScreen luminescence signal of 1.35.
With B5 the figure was 2.28; with B6, 2.14; with B7, 1.63.
The result for B8 reads 3.35; that for B9, 1.72; that for B10, 2.33.
With B11 the figure was 1.21.
